Test results taken from paper PMC9574860, “Chemical Toolkit for PARK7: Potent, Selective, and High-Throughput” (Journal of Medicinal Chemistry, 2022).
Hit rate of the full screen: of about 7,900 compounds, about 400 (5.1%) showed an effect of 50% or more. Some of the results follow.

biological target: Parkinson's disease protein 7 (PARK7/DJ1) (human, UniProt Q99497); test: primary screen, percent inhibition; read as competition with a fluorescent probe by fluorescence polarization; higher = more effect of the substance; settings: 100 µM
Summary of the method: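 Fluorescence-polarization probe displacement (JYQ-107, 20 nM final, 2 h) after 2 h preincubation of PARK7 (0.2 μM final) with each fragment at 100 μM final. Read-out ex/em 480/520 nm; remaining activity derived from FP signal loss relative to reference controls.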

Chain of Parkinson's disease protein 7 (PARK7/DJ1) (Q99497 whole entry, looked up, the tested form may be a part): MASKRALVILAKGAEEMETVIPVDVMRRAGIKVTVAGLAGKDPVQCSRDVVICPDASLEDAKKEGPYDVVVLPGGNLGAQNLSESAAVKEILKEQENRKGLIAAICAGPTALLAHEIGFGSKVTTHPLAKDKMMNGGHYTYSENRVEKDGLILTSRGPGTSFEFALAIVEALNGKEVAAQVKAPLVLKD

Row | SMILES | Inhibition %
1 | CCc1ccccc1S(=O)(=O)N[C@@H]1COC(=O)C1 | 9.65%
2 | Cc1ccc(C=CS(=O)(=O)NC(C)CC#N)cc1 (stereo not shown) | 1.08%
3 | CC1CC(Sc2nnc(-c3ccccc3)o2)C(=O)O1 (stereo not shown) | 0.804%
4 | N#Cc1cnccc1S | 92.5%
5 | COc1cc(Cl)c(C)cc1NC(=O)CCl | 13.1%
6 | CC(NC(=O)CCl)c1ccc2c(c1)CCCC2 (stereo not shown) | 5.3%
7 | C=CC(=O)Nc1ccc2c(c1)CCC(C)(C)O2 | 6.26%
8 | CC(C)(C)c1ccc(S(=O)(=O)n2ccnc2)cc1 | 17.4%
9 | CCOc1cc(S(=O)(=O)n2nc(C)cc2C)c(C)cc1C | 10.4%
10 | N#Cc1nccnc1N1CCc2c(F)ccc(F)c2C1 | 41%
11 | O=C(CN1C(=O)CCC1=O)c1ccccc1F | 9.1%
12 | CCc1cc(S(=O)(=O)n2nc(C)cc2C)ccc1OC | 5.05%
13 | O=C(NCCCCl)C1CCCC1 | -1.17%
14 | CN(C(=O)CCl)C(c1ccccc1)c1ccccc1 | 6.29%
15 | CC(=O)N1CC2(C[C@@H]3O[C@@H]3C2)C1C(C)C (stereo partly shown) | 3.59%
16 | Cc1ccc(NC(=O)N2CCC(C3OCCO3)CC2)cc1 | 4.42%
17 | COC(OC)c1ccncn1 | 7.63%
18 | CC(C)c1cc(=O)n(CCS(=O)(=O)F)cn1 | 7.39%
19 | COc1cnc(C#N)cn1 | 2.82%
20 | CC1(C)NC(=O)N(CCCCl)C1=O | 7.23%
21 | NC(=O)c1ccc(NC(=O)CCl)cc1 | 35.3%
22 | O=C(O)CC1CC(=O)N1 (stereo not shown) | 65.7%
23 | O=C(CCl)Nc1ccon1 | 14.8%
24 | Cc1nc(NC(=O)Oc2ccccc2)no1 | 25.1%
25 | O=C(O)[C@H]1CCCN1C(=O)C=Cc1ccccc1F | 8.2%
26 | C=CC(=O)NC1(c2nc(C)cs2)CCC1 | 3.02%
27 | N#CC(=Cc1ccncc1)C(=O)Nc1nccs1 | 8.47%

Row | SMILES | Inhibition %
28 | Cc1ccc2cccnc2c1B1OC(C)(C)C(C)(C)O1 | 0.734%
29 | CS(=O)(=O)C(C#N)=Cc1ccccc1F | 7.8%
30 | O=C(CCCl)N1CCc2ccccc21 | 3.9%
31 | CCc1ccc(OC)c(S(=O)(=O)n2nc(C)cc2C)c1 | 9.34%
32 | Sc1ncnc2sccc12 | 10.7%
33 | O=C(NC1CN(c2ccccc2)C1=O)c1ncccc1O (stereo not shown) | 8.82%
34 | C=CC(=O)NCc1ccc(C(N)=O)nc1 | 1.59%
35 | C=CC(=O)N[C@H]1CCCOC1 | 3.32%
36 | O=C(CCl)Nc1cccc(NC(=O)c2ccccc2)c1 | 7.84%
37 | Cc1c(C#N)c(NC(=O)CCl)n(Cc2ccc(F)cc2)c1C | 5.15%
38 | O=C(O)c1cccc(CN2C(=O)CSC2=O)c1 | 12.1%
39 | O=C(O)CN1Cc2ccccc2OC1=O | 11.3%
40 | COc1ccc(CCNC(=O)CCl)cc1 | 30.3%
41 | C=CC(=O)N1CCc2sccc2C1CC (stereo not shown) | 7.98%
42 | Cc1ccc(CNC(=O)CCl)s1 | 3.17%
43 | Cc1ccc(O)c(C(=O)N2CCCC(C3OCCO3)C2)c1 (stereo not shown) | 5.91%
44 | C=CC(=O)N1CCN(c2cccc(OCC)n2)CC1 | 22.3%
45 | C=CC(=O)N1CCCC1c1nc(N(C)C)no1 (stereo not shown) | 5.51%
46 | CN(C)CC=CC(=O)N(C1CCC1)C1CCC1 | 7.12%
47 | CSc1ccc(NC(=O)CCl)cc1 | 86%
48 | C=CC(=O)NCc1ccc(-c2ccccc2F)o1 | 2.54%
49 | Cc1ccc(C=C(C#N)C(=O)NC2CC2)s1 | 10.5%
50 | C=CC(=O)NCc1cc(F)cc2c1OCOC2 | 1.37%
51 | CN(CC(N)=O)c1ccc(C(F)(F)F)c(C#N)n1 | 15.4%
52 | CS(=O)(=O)N1CCCc2cc(C(=O)CCl)ccc21 | 76.4%
53 | O=C(CCl)Nc1nc2ccc([N+](=O)[O-])cc2s1 | 6.68%
54 | CCNC(=O)C(C#N)=Cc1ccc(O)cc1 | 7.71%

Row | SMILES | Inhibition %
55 | N#Cc1ncccc1N1CCC=C(F)C1 | 20.1%
56 | C=CC(=O)Nc1ccccc1C(F)(F)F | -0.252%
57 | C=C(C)CNC(=O)CCn1c(S)nc2ccccc2c1=O | 10.3%
58 | O=C1OC[C@@H]2CN(Cc3ccccc3)C[C@H]12 (racemic) | 6.21%
59 | N#Cc1nn(CCOC2CCCCO2)c2ccccc12 (stereo not shown) | 3.95%
60 | C=CC(=O)N1CCC(NC(=O)c2ccncc2)CC1 | 7.61%
61 | Fc1ccc(C2=NOC(CCl)C2)cc1 (stereo not shown) | -2.86%
62 | CC(C)c1nnc(SC2CCOC2=O)[nH]1 (stereo not shown) | 15.3%
63 | CC(C)(C)OC(=O)N1CCC(=CB2OC(C)(C)C(C)(C)O2)CC1 | 5.14%
64 | COC(=O)c1c(NC(=O)CCl)sc2c1CCC(C)C2 (stereo not shown) | 9.23%
65 | N#Cc1nccn1COC(=O)OC1CCCCC1 | 8.52%
66 | N#Cc1ccc(NCC2CCN(CC(F)(F)F)C2)cn1 (stereo not shown) | 5.73%
67 | Cc1cc(C(=O)Cn2cnc(C#N)n2)c(C)n1C | 18.2%
68 | O=C(Nc1ccccc1)NN(C(=O)CCl)c1ccccc1 | 93.5%
69 | COc1ccc(CN2C(=O)C(F)(F)C2c2ccco2)cc1 (stereo not shown) | 10.7%
70 | C=CC(=O)Nc1cc(C2CCCOC2)nn1C (stereo not shown) | 10.8%
71 | N#CC(=Cc1cnn(-c2ccccc2)c1)C(=O)O | 10.6%
72 | C=CC(=O)NC1C2CC3CC1CC(OC)(C3)C2 (stereo not shown) | 6.12%
73 | CCOc1cc(C)c(S(=O)(=O)n2ccnc2)cc1C | 6.38%
74 | C=CC(=O)Nc1cnn(C2CCCC2)c1C | 8.41%
75 | CC(C)(CNC(=O)CCl)N1CCOCC1.Cl | 13.3%
76 | CCCn1c(C)cc(C(=O)Cn2cnc(C#N)n2)c1C | 6.57%
77 | CN1C(=O)Cc2cc(C(=O)CCl)ccc21 | 83.4%
78 | C=CC(=O)N1CCCC1c1ccc(C)cc1 (stereo not shown) | 10.5%
79 | C=CC(=O)Nc1cc(F)cc(F)c1 | 2.67%
